Here are results for six sequences from publication PMC4081100.

The entries are a selection whose mix differs from that of the whole data set. For part of these data: At the low end of the ranking, values are background and their order means little. This is one part of the list. For part of these data: The source does not settle which construct or isoform was used.

Common to all, as to experiment: universal protein binding microarray (PBM)
Conditions in all cases: transcription factors of Arabidopsis thaliana; high values mean tight binding; most listed sequences are background and not binding sites; double strand, one strand shown

One test addresses T1, GST-ANAC092(1-176) (UniProt Q9FKA0).
T1 sequence: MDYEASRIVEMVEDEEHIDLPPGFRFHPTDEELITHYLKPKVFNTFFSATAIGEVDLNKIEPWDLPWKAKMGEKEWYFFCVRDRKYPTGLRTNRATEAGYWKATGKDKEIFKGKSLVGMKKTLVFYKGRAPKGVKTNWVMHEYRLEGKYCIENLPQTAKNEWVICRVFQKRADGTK

The target in a further test is GST-NTL6(1-168) (UniProt Q9SCK6).
UniProt Q9SCK6, sequence (Q9SCK6 1-168): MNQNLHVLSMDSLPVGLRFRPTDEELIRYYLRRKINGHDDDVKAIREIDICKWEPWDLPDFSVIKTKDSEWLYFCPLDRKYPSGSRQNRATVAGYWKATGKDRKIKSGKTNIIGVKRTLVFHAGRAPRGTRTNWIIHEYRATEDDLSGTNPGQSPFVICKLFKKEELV
For another test, the target named is T2, GST-ANAC019 NAC domain (UniProt Q9C932).
T2 sequence: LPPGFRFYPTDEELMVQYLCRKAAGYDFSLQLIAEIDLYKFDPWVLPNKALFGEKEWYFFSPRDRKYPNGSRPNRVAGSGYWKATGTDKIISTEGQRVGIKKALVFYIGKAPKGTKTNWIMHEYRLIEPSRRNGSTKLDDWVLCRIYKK

The target of another test is T3, GST-ANAC055(1-171) (UniProt Q9LDY8).
T3 sequence: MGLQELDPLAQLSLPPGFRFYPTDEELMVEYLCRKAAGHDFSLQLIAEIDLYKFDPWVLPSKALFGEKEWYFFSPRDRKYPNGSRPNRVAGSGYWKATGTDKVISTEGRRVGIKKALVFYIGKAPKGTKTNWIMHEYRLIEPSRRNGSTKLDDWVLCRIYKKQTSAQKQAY

In the next test the target is T4, GST-ATAF1 NAC domain (UniProt Q39013).
T4 sequence: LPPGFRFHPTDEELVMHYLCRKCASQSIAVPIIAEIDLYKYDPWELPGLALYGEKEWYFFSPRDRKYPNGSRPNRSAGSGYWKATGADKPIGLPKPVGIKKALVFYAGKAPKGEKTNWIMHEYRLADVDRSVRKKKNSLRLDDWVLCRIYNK

The target in test [1] is T5, GST-ANAC092(1-285) full length (UniProt Q9FKA0).
T5 sequence: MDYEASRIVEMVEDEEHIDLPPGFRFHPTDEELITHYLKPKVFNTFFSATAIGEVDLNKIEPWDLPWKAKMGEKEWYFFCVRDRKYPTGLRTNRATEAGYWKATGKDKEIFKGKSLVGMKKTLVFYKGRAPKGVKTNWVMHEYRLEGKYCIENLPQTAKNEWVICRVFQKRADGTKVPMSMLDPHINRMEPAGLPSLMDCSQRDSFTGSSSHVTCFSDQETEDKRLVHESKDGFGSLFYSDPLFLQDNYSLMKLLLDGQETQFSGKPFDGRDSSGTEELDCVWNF

For another test, the target named is T6, GST-NAP(1-166) (UniProt O49255).
T6 sequence: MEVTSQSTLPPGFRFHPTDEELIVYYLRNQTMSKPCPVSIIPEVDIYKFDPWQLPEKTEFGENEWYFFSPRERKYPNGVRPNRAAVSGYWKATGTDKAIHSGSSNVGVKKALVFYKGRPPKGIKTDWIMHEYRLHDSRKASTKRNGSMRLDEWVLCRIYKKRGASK

The next test deals with T7, GST-NST2(1-184) (UniProt Q9M274).
T7 sequence: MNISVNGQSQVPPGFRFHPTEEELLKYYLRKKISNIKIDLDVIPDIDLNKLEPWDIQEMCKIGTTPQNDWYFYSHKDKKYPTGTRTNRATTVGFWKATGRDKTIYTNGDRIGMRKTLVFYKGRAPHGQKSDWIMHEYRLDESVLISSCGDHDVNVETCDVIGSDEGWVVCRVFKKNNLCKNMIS

For the next test, the target named is T8, GST-NTL8 NAC domain (UniProt Q9XIN7).
T8 sequence: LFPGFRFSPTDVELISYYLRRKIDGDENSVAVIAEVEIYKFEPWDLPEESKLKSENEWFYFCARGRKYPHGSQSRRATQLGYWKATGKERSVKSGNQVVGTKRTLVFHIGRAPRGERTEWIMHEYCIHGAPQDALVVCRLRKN

Another test has as its target T9, GST-SND1(1-203) (UniProt Q9LPI7).
T9 sequence: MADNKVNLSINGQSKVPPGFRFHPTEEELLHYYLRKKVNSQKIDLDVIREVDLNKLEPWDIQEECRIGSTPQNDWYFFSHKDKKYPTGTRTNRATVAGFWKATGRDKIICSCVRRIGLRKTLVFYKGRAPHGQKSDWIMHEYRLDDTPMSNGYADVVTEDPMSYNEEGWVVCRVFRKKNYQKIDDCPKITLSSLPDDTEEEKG

The next test concerns the target T10, GST-VND3 NAC domain (UniProt Q9FH59).
T10 sequence: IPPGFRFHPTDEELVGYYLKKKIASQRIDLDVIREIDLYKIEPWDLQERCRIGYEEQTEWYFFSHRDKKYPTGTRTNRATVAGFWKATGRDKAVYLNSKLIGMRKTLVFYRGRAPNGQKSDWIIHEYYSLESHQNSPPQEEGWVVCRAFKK

A further test addresses T11, GST-VND7 NAC domain (UniProt Q9C8W9).
T11 sequence: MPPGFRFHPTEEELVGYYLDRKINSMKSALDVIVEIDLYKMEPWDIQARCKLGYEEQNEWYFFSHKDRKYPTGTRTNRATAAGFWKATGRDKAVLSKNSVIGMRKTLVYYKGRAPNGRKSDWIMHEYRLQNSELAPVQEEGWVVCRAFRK

In test [2] the target is T12, GST-VOZ2 (Arabidopsis thaliana) (UniProt Q9SLB9).
T12 sequence: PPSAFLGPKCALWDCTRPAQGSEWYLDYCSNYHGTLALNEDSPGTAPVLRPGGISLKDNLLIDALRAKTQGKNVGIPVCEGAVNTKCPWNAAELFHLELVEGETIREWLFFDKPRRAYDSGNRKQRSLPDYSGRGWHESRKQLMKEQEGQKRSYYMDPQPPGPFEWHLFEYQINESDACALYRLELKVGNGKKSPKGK

For the sequence TCCGGTCA, the binding signal in the test with GST-ANAC092(1-176) was -0.126 E-score; in the test with GST-NTL6(1-168), -0.24 E-score; with GST-ANAC019 NAC domain it was -0.0138 E-score; in the test with GST-ANAC055(1-171) it was -0.0981 E-score; with GST-ATAF1 NAC domain, -0.0161 E-score; in [1], -0.0282 E-score. Besides, the binding signal is -0.0415 E-score with GST-NAP(1-166); -0.0983 E-score with GST-NST2(1-184); -0.0714 E-score with GST-NTL8 NAC domain; -0.103 E-score with GST-SND1(1-203); -0.245 E-score in the test with GST-VND3 NAC domain; -0.0405 E-score in the test with GST-VND7 NAC domain. Besides, the binding signal in [2] is -0.0204 E-score.

Take GTGGACCA: the binding signal was -0.0336 E-score in the test with GST-ANAC092(1-176); -0.183 E-score with GST-NTL6(1-168); -0.0105 E-score with GST-ANAC019 NAC domain; -0.0634 E-score in the test with GST-ANAC055(1-171); -0.0602 E-score with GST-ATAF1 NAC domain; 0.0312 E-score in [1]. In addition, the binding signal is -0.0422 E-score with GST-NAP(1-166); -0.0254 E-score with GST-NST2(1-184); -0.0583 E-score with GST-NTL8 NAC domain; -0.0198 E-score with GST-SND1(1-203); -0.0575 E-score with GST-VND3 NAC domain; -0.105 E-score in the test with GST-VND7 NAC domain. In [2], this sequence had a binding signal of -0.134 E-score.

Consider CCGGTCAG, for which the binding signal was -0.145 E-score in the test with GST-ANAC092(1-176); -0.181 E-score with GST-NTL6(1-168); -0.084 E-score in the test with GST-ANAC019 NAC domain; -0.29 E-score with GST-ANAC055(1-171); -0.21 E-score with GST-ATAF1 NAC domain; -0.232 E-score in test [1]. Moreover, the binding signal in the test with GST-NAP(1-166) is -0.13 E-score; with GST-NST2(1-184) it was -0.166 E-score; with GST-NTL8 NAC domain, -0.0522 E-score; with GST-SND1(1-203), -0.203 E-score; with GST-VND3 NAC domain, -0.268 E-score; with GST-VND7 NAC domain it was -0.198 E-score. In [2], this sequence displayed a binding signal of -0.0909 E-score.

With AACGGTCA, the binding signal in the test with GST-ANAC092(1-176) was 0.048 E-score; in the test with GST-NTL6(1-168) it was -0.0673 E-score; with GST-ANAC019 NAC domain, -0.00984 E-score; with GST-ANAC055(1-171) it was 0.029 E-score; with GST-ATAF1 NAC domain, -0.105 E-score; in [1] it was 0.0431 E-score. For the same sequence, the binding signal in the test with GST-NAP(1-166) is 0.0361 E-score; with GST-NST2(1-184), 0.0186 E-score; in the test with GST-NTL8 NAC domain it was -0.0376 E-score; with GST-SND1(1-203), -0.00052 E-score; with GST-VND3 NAC domain it was -0.106 E-score; in the test with GST-VND7 NAC domain it was -0.0397 E-score. Further, in test [2], the binding signal was -0.0575 E-score.

As for CGATGACC, the binding signal with GST-ANAC092(1-176) was -0.127 E-score; in the test with GST-NTL6(1-168) it was -0.0219 E-score; with GST-ANAC019 NAC domain it was -0.158 E-score; in the test with GST-ANAC055(1-171), -0.125 E-score; with GST-ATAF1 NAC domain, -0.238 E-score; in test [1] it was -0.0953 E-score. For the same sequence, the binding signal with GST-NAP(1-166) was -0.113 E-score; with GST-NST2(1-184), -0.167 E-score; in the test with GST-NTL8 NAC domain, -0.0881 E-score; with GST-SND1(1-203) it was -0.115 E-score; with GST-VND3 NAC domain, -0.157 E-score; in the test with GST-VND7 NAC domain, -0.0842 E-score. In addition, the binding signal in test [2] is -0.0687 E-score.

With GTAGGTCA, the binding signal with GST-ANAC092(1-176) is -0.00958 E-score; in the test with GST-NTL6(1-168), 0.0465 E-score; in the test with GST-ANAC019 NAC domain it was 0.129 E-score; in the test with GST-ANAC055(1-171), 0.0231 E-score; with GST-ATAF1 NAC domain, 0.0257 E-score; in test [1] it was -0.122 E-score. For the same sequence, the binding signal with GST-NAP(1-166) was -0.0203 E-score; with GST-NST2(1-184), -0.0508 E-score; in the test with GST-NTL8 NAC domain, 0.0647 E-score; with GST-SND1(1-203) it was -0.0864 E-score; with GST-VND3 NAC domain, -0.0467 E-score; with GST-VND7 NAC domain, -0.0325 E-score. For the same sequence, in test [2], the binding signal is -0.0017 E-score.
